The whole screen tested about 310,000 compounds, of which about 11,000 (3.5%) were called active. Inconclusive results, whose numbers are uncertain, are shown with a selection of clear calls. Calls come from the whole dose curve; as a rule, active = well fitted inhibition curve with a large enough effect; inconclusive = small, poorly fitted or top-dose-only effect, or effect the other way; inactive = flat fitted curve, though single readings scatter. No potency is given beside an inconclusive call; the fits are too rough.
test: VP16 counterscreen qHTS for inhibitors of ROR gamma transcriptional activity; conditions: Drosophila S2 Gal4-VP16 UAS-luciferase, luminescence, 20 h; activity, negative = inhibition: at 53.6 µM (top of the series);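 note: Gal4-VP16 expression switched on by copper sulfate through the metallothionein promoter; nearly all actives have a fitted effect of over 50% in size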
% is set by controls: 0 for no effect and ±100 for the full control effect; potency is the fitted concentration of half-maximal effect; tags give direction and shape of the fitted curve.

Row | SMILES | Potency | activity, negative = inhibition
1 | O=C(NC(=S)N1CCc2ccccc21)c1ccccc1Cl | active: 1 µM | –
2 | c1ccc2nc(-c3ccncc3)ccc2c1 | inactive | –
3 | Cc1nc2cc(-c3ccccc3)sc2c(=O)n1N | active: 1.58 µM | –
4 | C/C(=N/Nc1ccc(C)cc1)C1(C)N(O)C(C)(C)C(c2ccco2)=[N+]1[O-] (stereo unspecified) | – | inactive: -9.33% [at 10 µM]
5 | CCOc1ccc2c(c1)n([O-])c1c([n+]2=O)CCCC1 | inconclusive [inhibitor, single point] | –
6 | O=c1c2ccccc2nc(-c2ccco2)n1Cc1ccccc1 | inconclusive [activator, single point] | –
7 | O=c1cc(O)c2sc(Nc3ccc(F)c(Cl)c3)nc2[nH]1 | inactive | –
8 | Cc1ccc(-n2c(=O)[nH]c3ncccc3c2=O)cc1 | inactive | –
9 | Nc1nc(CSc2nc3ccccc3[nH]2)cs1 | inconclusive [inhibitor, single point] | –
10 | O=C(Nc1ccccc1N1CCOCC1)c1cc(-c2ccco2)nc2ccccc12 | inactive | –
11 | Cc1ccc(-n2c(Cc3noc4ccccc34)n[nH]c2=S)cc1 | inactive | –
12 | CCOc1cccc(-c2nn(-c3ccccc3)cc2/C=C(/C#N)C(=O)NCCCn2ccnc2)c1 | inconclusive [inhibitor, single point] | –
13 | CC(C)C(=O)NC(=S)Nc1ccc(S(=O)(=O)N(C)C)cc1 | inconclusive [inhibitor, single point] | –
14 | Clc1ccc(Nc2ncnc3c2cnn3-c2ccccc2)cc1 | inconclusive [inhibitor, single point] | –
15 | Cc1ccccc1N(CC(=O)N1CCCCCC1)S(C)(=O)=O | inactive | –
16 | O=c1c(CCc2ccccc2)nc2cnc(N3CCOCC3)nc2n1Cc1ccc(F)cc1 | inactive | –
17 | COC(=O)/C=C/CSC1=N/C(=C/c2ccc(-n3cncn3)cc2)C(=O)N1 | inconclusive [inhibitor, full curve] | –
18 | COc1ccc(/C=N/NC(=O)c2ccc(CSc3nc(C)cc(C)n3)cc2)c(OC)c1OC | inactive | –
19 | Cc1ccc(S(=O)(=O)N/N=C\c2ccc3c(c2)OCO3)cc1 | inactive | –
20 | O=C(O)CN1CCN(c2ncc(C(F)(F)F)cc2Cl)CC1 | inactive | –
21 | O=c1[nH]nc(CNc2ccc(OC(F)(F)F)cc2)c2ccccc12 | inactive | –
22 | Cc1ccccc1C(=O)Oc1ccc(Br)cc1C(=S)N1CCCC1 | inconclusive [inhibitor, single point] | –
23 | COc1ccc(CNC(=O)c2cccc(-c3ccc(C)c4ccccc34)n2)cc1 | inconclusive [inhibitor, single point] | –
24 | Cc1ccc(N2CC(C(=O)Nc3ccc(C)c(S(=O)(=O)N(C)C)c3)CC2=O)cc1 (stereo unspecified) | inactive | –
25 | Cc1cccc2c1N(CCCOc1ccc(C(C)(C)C)cc1)C(=O)C2=O | inconclusive [inhibitor, partial curve] | –
26 | O=C(Oc1ccnc2cc(Cl)ccc12)N1CCCCCC1 | active: 12.6 µM | –

Row | SMILES | Potency | activity, negative = inhibition
27 | CC1(C)CC(=O)C([N+](=O)[O-])=C(NCCCC(=O)O)C1 | inactive | –
28 | CCn1c(=O)c(-c2cc(=O)[nH][nH]2)c(O)c2ccccc21 | inconclusive [inhibitor, single point] | –
29 | COc1ccc(OC)c(C2=Nn3c(nnc3-c3ccccc3O)SC2)c1 | inconclusive [inhibitor, single point] | –
30 | COc1ccc(CNC(=O)CSc2ccsc2[N+](=O)[O-])cc1 | inconclusive [activator, full curve, poor fit] | –
31 | CC(=O)c1cccc(NC(=S)NC(=O)c2ccc(C)cc2)c1 | active: 12.6 µM | –
32 | O=C(N/N=C/c1ccc(O)cc1)c1[nH]c2ccc(Br)cc2c1-c1ccccc1 | inconclusive [activator, single point] | –
33 | CCn1c(C(=O)N2CCCC(C(=O)NCCCc3ccccc3)C2)cc2sccc21 (stereo unspecified) | active: 11.2 µM | –
34 | C=CCn1c(-c2cccnc2Cl)nc2cc(Cl)c(Cl)cc21 | inactive | –
35 | COc1ccc(C(=NNc2ccccc2C(=O)O)c2ccc(OC)cc2)cc1 | inconclusive [inhibitor, single point] | –
36 | O=C(CCSc1nnc2ccccn12)Nc1ccc2c(c1)OCO2 | inconclusive [activator, single point] | –
37 | O=C(/C=C/c1cccc(F)c1)Nc1nccs1 | inconclusive [activator, single point] | –
38 | Cc1ccc(N/C(N)=N/c2nc(CSc3nnc(C)s3)cc(=O)[nH]2)c(C)c1 | inconclusive [inhibitor, partial curve] | –
39 | CCCOc1ccc(OCC(=O)c2[nH]c(C)c(C(C)=O)c2C)cc1 | inconclusive [inhibitor, single point] | –
40 | Cc1c(C(=O)N2CCOCC2)c(S(=O)(=O)Nc2ccc(OC(F)(F)F)cc2)c(C)n1C | inactive | –
41 | CN(Cc1c(C(=O)N/N=C/c2ccc(O)cc2)nnn1-c1nonc1N)C1CCCCC1 | inconclusive [inhibitor, single point] | –
42 | O=C(OCc1ccccc1)c1cccnc1 | inactive | –
43 | COc1cccc(C(C(=O)NC2CCCC2)N(CC2CCCO2)C(=O)Cc2cccs2)c1 (stereo unspecified) | inconclusive [activator, single point] | –
44 | Cc1cc(C)c(Cn2c3ccccc3c3cnn(CC(=O)NCCN4CCOCC4)c(=O)c32)c(C)c1 | inconclusive [inhibitor, single point] | –
45 | O=C(Nc1ccc2ccccc2c1)c1ccccc1O | inconclusive [inhibitor, single point] | –
46 | CCOC(=O)N=Nc1c2ccccc2c2nc3no[nH]c3nc12 | active: 3.98 µM | –
47 | CC(=O)c1ccc(NC(=S)NN2C(C)CCCC2C)cc1 (stereo unspecified) | inconclusive [inhibitor, single point] | –
48 | CC(=O)Nc1cccc(NC(=O)CSc2nn3c(=O)c(C)nnc3s2)c1 | inactive | –
49 | CC(C)N(Cc1ccccc1)C(=O)CN1C(=O)COc2ccc(S(=O)(=O)N3CCCCCC3)cc21 | inactive | –
50 | O=C(O)/C=C/C(=O)Nc1cccnc1 | inconclusive [inhibitor, single point] | –
51 | CCn1c(SCc2cccc(C)c2)nnc1-c1ccccc1 | inactive | –
52 | COc1ccccc1C(=O)NNC(=O)c1ccc(Br)cc1 | inconclusive [activator, single point] | –

Row | SMILES | Potency | activity, negative = inhibition
53 | CCS(=O)(=O)c1ccc2c(c1)N(S(C)(=O)=O)CC(C(=O)NCc1ccccc1OC)O2 (stereo unspecified) | inconclusive [inhibitor, single point] | –
54 | O=C(NC(=S)Nc1nc2c(s1)CCCC2)c1ccc(C(=O)c2ccccc2)cc1 | inconclusive [inhibitor, partial curve] | –
55 | CCOP(=O)(OCC)/C(=N/OC(=O)c1ccc(OC)cc1)C(N)=O | inconclusive [inhibitor, full curve] | –
56 | NS(=O)(=O)c1cccc(NC(=O)c2cccnc2Oc2ccccc2)c1 | inactive | –
57 | COC(=O)c1cc(C#N)c(N(C)Cc2ccccc2)nc1C | inconclusive [inhibitor, single point] | –
58 | CCN(CC)c1ccc(/C=C(/C#N)c2nc3ccccc3[nH]2)c(OC(C)C)c1 | inconclusive [inhibitor, single point] | –
59 | O=C1/C(=C/c2cccc(F)c2)CSc2sccc21 | inactive | –
60 | O=C(CN(C(=O)c1csnn1)c1ccc(Cl)cc1)NCc1ccc2c(c1)OCO2 | inactive | –
61 | Cc1sc2ncn(CC(=O)N(CC(=O)NC3CCCC3)Cc3cccs3)c(=O)c2c1C | inconclusive [inhibitor, single point] | –
62 | Cc1nc2ccccc2c(=O)n1/N=C/c1c(O)ccc2ccccc12 | inconclusive [inhibitor, single point] | –
63 | Cc1ccc(-n2c(-c3cccc(C)c3)n[nH]c2=S)cc1 | active: 7.08 µM | –
64 | O=C(N/N=C\c1cc2c(cc1Cl)OCO2)c1ccc(Br)s1 | inconclusive [inhibitor, partial curve] | –
65 | CC(=O)CCC(=O)NC1CCCc2c1cnn2-c1ccc(C(C)(C)C)cc1 (stereo unspecified) | inconclusive [inhibitor, single point] | –
66 | Cc1ccccc1OCC(=O)Nc1cccc(C(=O)O)c1 | active: 6.31 µM | –
67 | CN1C(=O)C(C)(C)c2cc(S(=O)(=O)NCCc3ccc(Cl)cc3)ccc21 | inconclusive [inhibitor, single point] | –
68 | COc1ccc(CNC(=O)CCSCc2cccc(Cl)c2)c(OC)c1 | inconclusive [inhibitor, single point] | –
69 | Nc1ncnc2c1c(I)cn2C1OC(CO)C(O)C1O (stereo unspecified) | active: 3.98 µM | –
70 | COCCN1C(=O)C(CC(=O)Nc2ccccc2)SC1=Nc1ccc(OC)cc1 (stereo unspecified) | inactive | –
71 | CCOc1ccccc1NC(=O)C(=O)CC(=O)c1cccc(OC)c1 | active: 7.94 µM | –
72 | CCCCNC(=S)Nc1ccccc1F | inconclusive [inhibitor, single point] | –
73 | CC1CCC(C(C)C)C(OC(=O)Cn2c(-c3ccc(Cl)cc3)[n+](C)c3ccccc32)C1 (stereo unspecified) | inconclusive [inhibitor, single point] | –
74 | CCc1ccc(-n2c(Cn3nc(C(F)(F)F)cc3C)n[nH]c2=S)cc1 | inconclusive [inhibitor, partial curve] | –
75 | OC(CNCCc1ccc(C(F)(F)F)cc1)COc1ccc2ccccc2c1 (stereo unspecified) | active: 11.2 µM | –
76 | Cc1c(N2C(=O)/C(=C/c3ccccc3)SC2=S)c(=O)n(-c2ccccc2)n1C | inactive | –

Reference: PubChem BioAssay AID2546 (National Center for Advancing Translational Sciences (NCATS), 2010)
